Measurements published in PubChem BioAssay AID1346428 (National Center for Advancing Translational Sciences (NCATS), 2018).
“And” between values parts separate entries of the source, which are not always exact repeats. Equal values may be shown once. Out of some 48,000 compounds screened, about 1,200 (2.5%) were called active. Another 2% or so got no clear call; they are omitted.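 Rule for the calls: active = activation of at least 60% and not above a set upper limit (about 1 call in 100 departs from these limits); inconclusive = activation of 40% to 60%, or above that upper limit; inactive = activation under 40%.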 The list shows a part of the results.

Biological target: Probable G-protein coupled receptor 32 (Homo sapiens) (UniProt O75388)
UniProt O75388, sequence (O75388 whole entry, looked up): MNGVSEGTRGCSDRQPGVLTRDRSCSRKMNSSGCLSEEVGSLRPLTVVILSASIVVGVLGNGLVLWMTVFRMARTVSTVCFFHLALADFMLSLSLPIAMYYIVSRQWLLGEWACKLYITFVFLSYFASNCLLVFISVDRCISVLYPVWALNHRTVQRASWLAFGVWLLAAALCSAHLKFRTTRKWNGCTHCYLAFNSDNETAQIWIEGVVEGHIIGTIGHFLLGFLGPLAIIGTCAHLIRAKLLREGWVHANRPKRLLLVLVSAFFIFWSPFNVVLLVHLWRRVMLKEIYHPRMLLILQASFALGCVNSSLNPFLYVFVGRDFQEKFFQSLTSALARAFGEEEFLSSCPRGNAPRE
Experiment: qHTS for Agonists of Human Resolvin D1 Receptor DRV1; note: 0% is about no effect
Conditions: CHO-K1 GPR32 beta-arrestin PathHunter luminescence, 90 min; at 76.9 µM; hits give high values; zero percent set by DMSO-only wells
In short: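 Luminescent readout of beta-Gal complementation quantifies ligand-induced beta-arrestin association with GPR32 in CHO-K1 cells; 90 min compound incubation at 37 °C, detection 1 h at room temperature.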

activation, inactive:
Cn1c(=O)[nH]c(=O)c2c1nc1n2CCN1c1ccccc1 -10.4%, CCOc1ccc(NC(=O)Cn2c(=O)cc(C)c3c(C)nn(-c4cccc(Cl)c4C)c32)cc1 0.235%, CCOC(=O)CC(NC(=O)CCc1c(C)nc2ncnn2c1C)c1ccc(OC(C)C)cc1 (configuration not stated) -1.26%, CC(C)c1ccc(NC(=O)CCNS(=O)(=O)c2ccc3c(c2)CCCC(=O)N3)cc1 2.6%, CCOC(=O)c1ccccc1NC(=O)CSc1cn(CC(=O)N2CCOCC2)c2ccccc12 -11.1%, COc1ccc(CNC(=O)C2CCC(CNS(=O)(=O)c3cccs3)CC2)cc1 (configuration not stated) 38.5%, Cc1ccccc1CSc1nc2cccnc2n1Cc1ccc(C(=O)NC2CC2)cc1 -8.62%, CCOc1ccc(Nc2nc(C)c(NC(=O)c3cccc(OC)c3)c(Nc3ccc(OCC)cc3)n2)cc1 -8.06%, Cc1ccc(-c2nc(S(=O)(=O)c3ccc(C)cc3)c(N3CCCCCC3)o2)cc1 -8.72%, Cc1ccc(N2CCN(S(=O)(=O)c3nnc(NC(=O)c4ccc(C(C)C)cc4)s3)CC2)cc1 9.59%, O=C(O)c1cc2cc(F)ccc2[nH]1 1.4%, COc1ccc(F)cc1S(=O)(=O)NCCc1csc(-c2ccc(Cl)cc2)n1 35.8%, CCOc1ccc(-c2cn(-c3ccc(OC)cc3)c(SCC(=O)Nc3ccccc3Cl)n2)cc1 -24.9%, CCc1ccc(NC(=O)C2CCN(c3nnc(-n4c(C)ccc4C)s3)CC2)cc1 -21.5%, CC(=O)c1ccc(NC(=O)CSc2cn(CC(=O)N3CCCCC3)c3ccccc23)cc1 -5.24%, CCC(=O)Nc1sc2c(c1C(=O)Nc1ccc(OC)cc1)CCC(C(C)(C)C)C2 (configuration not stated) 11.5%, Cc1cc(C)c(S(=O)(=O)NCCc2cc3c(C)ccc(C)c3[nH]c2=O)c(C)c1 1.6%, Cc1ccc(NC(=O)C2Cc3ccccc3N2C(=O)c2ccccc2)cc1Cl (configuration not stated) -7.14%, O=C(Nc1ccc(S(=O)(=O)N2CCC(c3nc4ccccc4s3)CC2)cc1)c1ccc(F)cc1 -1.82%, CCCC(=O)NCCc1nc2ccccc2n1Cc1c(F)cccc1Cl 1%, Cc1ccc(C)c(-n2nnc(-c3nc(-c4ccc(Cl)cc4)no3)c2N)c1 14.8%, COc1ccc(NC(=O)c2sc3nc(C)c(C(=O)Nc4ccc(C)cc4C)c(-c4ccc(Cl)cc4)c3c2N)cc1 7.36%, O=C(NCc1ccc2c(c1)CCN2C(=O)c1ccncc1)c1cccc(Cl)c1 -6.66%, COc1ccc(OC)c(NC(=O)CSC2=Nc3ccccc3C3=NC(CC(=O)NCc4ccco4)C(=O)N23)c1 (configuration not stated) -27.9%, N#Cc1ccc(C(=O)Nc2ccc(Cl)c(-c3nc4cc(Cl)ccc4o3)c2)c(F)c1 -16.7%, Cc1oc(-c2ccccc2F)nc1CS(=O)(=O)CC(=O)N1CCN(c2cccc(C(F)(F)F)c2)CC1 46.5%, NNC(=O)c1ccncc1 -18.7%, CN(C(=O)CCCOc1ccc2[nH]c(=O)ccc2c1)C1CCCCC1 12.8% and 3.1%, COc1cc(OC)cc(C(=O)Nc2cc(-c3nc4ccccc4s3)ccc2OC)c1 -9.71%, Cc1ccc(C(=O)NCC(c2cccs2)S(=O)(=O)c2cccs2)cc1C (configuration not stated) 14.4%, CCOc1ccc(NC(=O)CN(C)S(=O)(=O)c2ccc3c(c2)c(=O)n(C)c(=O)n3C)cc1 -2.81%, CCN(C(=O)c1nn(-c2ccc(OC)c(Cl)c2)c(=O)c2c1c1ccccc1n2C)c1cc(OC)ccc1OC -6.26%, Cc1ccc(NC(=O)c2cccc(NC(=O)N3CCSc4ncccc43)c2)cc1Cl 8.07%, COc1ccc(N2CCN(C(=O)Cn3ncc4c3-c3cc(C)ccc3OC4)CC2)cc1 -44.1%, COc1ccc(-c2nc3sc(CCNC(=O)C(=O)Nc4cc(C)cc(C)c4)c(C)n3n2)cc1 1.26%, CCOC(=O)c1ccc(NC(=O)CN(c2ccc(C)cc2)S(=O)(=O)c2ccc(OC)cc2)cc1 -4.18%, CCC(=O)Nc1nnc(S(=O)(=O)N(C)Cc2ccc(Cl)cc2)s1 -12.6%, COc1ccc(OC)c(NC(=O)CSC2=Nc3ccccc3C3=NC(CCC(=O)NCc4ccco4)C(=O)N23)c1 (configuration not stated) -5.35%, O=S1(=O)c2ccccc2N(Cc2ccc(Cl)cc2F)c2ccccc21 -8.26%, CN(C)S(=O)(=O)c1ccc2c(c1)c(=O)c(C(=O)N1CCN(c3cccc(Cl)c3)CC1)cn2C 11.9%, CCOc1ccccc1NC(=O)CSC1=Nc2ccccc2C2=NC(CC(=O)NC3CCCCC3)C(=O)N12 (configuration not stated) -17.1%, CCOc1ccc(CN2C(=O)c3ccccc3Sc3ccc(C(=O)N4CCN(C)CC4)cc32)cc1 -3.64%, COc1ccc(N2CCN(CCCNC(=O)Nc3ccccc3Cl)CC2)cc1 10.4%, COc1ccc(CCNC(=O)CN(c2ccc(C)cc2)S(=O)(=O)c2ccc(OC)cc2)cc1 -12.7%, CCOc1ccc(-c2nc3c(c(SCC(=O)N4CCCCC4)n2)Cc2cc(C)ccc2O3)cc1 -11.3%, Cc1cc(NC(=O)c2cccnc2)cc(-c2nc3cc(Cl)ccc3o2)c1O 15.9%, CCC(CC)C(=O)Nc1c(C(=O)N2CCN(c3ccccc3F)CC2)oc2ccccc12 -29.5%, CCC(Sc1nc2cc(OC)c(OC)cc2c(=O)n1Cc1ccc(Cl)cc1)C(=O)NCCOC (configuration not stated) -17.4%, Brc1ccc(-c2ccc(CNCCSc3nnnn3-c3ccccc3)o2)cc1 -16.9%, O=C(NC1CC(=O)N(c2ccccc2)C1)c1ccc(S(=O)(=O)N2CCOCC2)cc1 (configuration not stated) 0.96%, CCOC(=O)CC(NC(=O)c1cc2cc(Cl)ccc2oc1=O)c1ccc(C)cc1 (configuration not stated) 31.9%, COc1ccccc1N1CCN(c2ccc3cc(S(=O)(=O)N4CCCCC4)ccc3n2)CC1 -3.93%
